{
  "source": "paper PMC6919601",
  "about": "“Identification of Plasmodium dipeptidyl aminopeptidase allosteric inhibitors by high throughput screening” (PLoS ONE, 2019)",
  "note": "Hit rate of the full screen: of about 110,000 compounds, about 230 (0.21%) showed an effect of 50% or more. This is one part of the list.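 Note: 30 min substrate incubation versus DMSO and 10 µM JCP410 controls.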",
  "data": [
    {"molecular_target": "DPAP1 (Plasmodium falciparum, UniProt Q8IIJ9)", "sequence (Q8IIJ9 whole entry, looked up)": "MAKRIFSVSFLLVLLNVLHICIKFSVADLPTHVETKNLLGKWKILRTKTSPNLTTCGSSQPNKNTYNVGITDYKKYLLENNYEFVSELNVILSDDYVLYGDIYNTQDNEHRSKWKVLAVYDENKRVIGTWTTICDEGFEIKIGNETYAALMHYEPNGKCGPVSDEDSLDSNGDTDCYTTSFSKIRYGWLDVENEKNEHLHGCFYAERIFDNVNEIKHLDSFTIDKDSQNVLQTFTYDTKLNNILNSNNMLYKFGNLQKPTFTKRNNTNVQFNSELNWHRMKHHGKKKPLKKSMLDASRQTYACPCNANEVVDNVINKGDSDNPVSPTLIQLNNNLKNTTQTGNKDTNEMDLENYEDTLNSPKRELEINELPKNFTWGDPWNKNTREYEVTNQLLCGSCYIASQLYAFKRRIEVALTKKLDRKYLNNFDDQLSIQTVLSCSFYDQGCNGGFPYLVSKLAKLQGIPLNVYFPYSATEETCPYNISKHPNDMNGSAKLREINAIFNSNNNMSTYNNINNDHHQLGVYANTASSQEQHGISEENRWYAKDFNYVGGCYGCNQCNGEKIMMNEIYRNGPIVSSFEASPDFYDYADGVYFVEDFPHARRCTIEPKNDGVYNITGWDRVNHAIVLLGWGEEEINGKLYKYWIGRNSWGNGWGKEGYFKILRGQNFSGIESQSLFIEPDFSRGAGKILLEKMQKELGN", "assay": "primary screen, percent inhibition; read by cleavage of a fluorogenic dipeptide substrate; higher = more effect of the substance", "design": "species or system P. falciparum D10 trophozoite lysates; single well", "units": {"% Inhibition @ 10 uM": "%"}, "values": [
      {"compound": "CCN(CC)c1ccc(Nc2nc(-c3sc(N)nc3C)cs2)cc1", "% Inhibition @ 10 uM": 9.57},
      {"compound": "CCS(=O)(=O)c1oc(-c2ccc(F)cc2)nc1S(=O)(=O)c1ccc(Cl)cc1", "% Inhibition @ 10 uM": 3.54},
      {"compound": "C=CCNC(=O)Nc1cnc2ccc(C)cc2c1O", "% Inhibition @ 10 uM": 5.43},
      {"compound": "COc1nc(-c2ccccc2)cc(-c2ccc(C)cc2)n1", "% Inhibition @ 10 uM": 1.8},
      {"compound": "O=C(Nc1ccc(F)cc1Cl)c1cc2ccccc2o1", "% Inhibition @ 10 uM": -0.865},
      {"compound": "Cc1nc2c(-c3ccc(Cl)cc3)c(C)nn2c(O)c1Cl", "% Inhibition @ 10 uM": 3.61},
      {"compound": "Cc1[nH]nc2c1C(c1ccc(COc3cccc(Br)c3)o1)C(C#N)=C(N)O2", "note": "(centres unmarked)", "% Inhibition @ 10 uM": -0.105},
      {"compound": "CC1Oc2ccccc2OC1C(=O)NCc1ccccc1", "note": "(centres unmarked)", "% Inhibition @ 10 uM": -3.4},
      {"compound": "COc1ccc(OC)c(C2=NOC(C(=O)N3CCC4(CC3)OCCO4)C2)c1", "note": "(centres unmarked)", "% Inhibition @ 10 uM": 2.85},
      {"compound": "OC1CCN(Cc2ccc(F)cc2F)CC1", "% Inhibition @ 10 uM": -0.828},
      {"compound": "CCN(CC)S(=O)(=O)c1cccc(C(=O)Nc2ccc(OC)cc2)c1", "% Inhibition @ 10 uM": 3.25},
      {"compound": "COc1ccc(CNc2nc(-c3cccnc3)nn2S(=O)(=O)c2ccccc2)cc1", "% Inhibition @ 10 uM": 3.81},
      {"compound": "COc1ccccc1C(=O)n1nc(-c2cccnc2)nc1NCc1ccco1", "% Inhibition @ 10 uM": -4.75},
      {"compound": "CCc1ccc2cc(-c3ccc(F)cc3)cn2c1", "% Inhibition @ 10 uM": -0.105},
      {"compound": "COc1ccc(CCNC(=O)CSc2ncnc3sc(C)c(C)c23)cc1", "% Inhibition @ 10 uM": -2.09},
      {"compound": "CCOc1ccccc1C1C2=C(O)CCCC2=Nc2nc(-c3cccc(Cl)c3)nn21", "note": "(centres unmarked)", "% Inhibition @ 10 uM": 5.17},
      {"compound": "CC(C)Oc1ccc(C(=O)NCCNC(=O)c2nonc2N)cc1", "% Inhibition @ 10 uM": 1.72},
      {"compound": "O=C(CCn1ccc2cc(S(=O)(=O)N3CCCCC3)ccc21)NCc1ccco1", "% Inhibition @ 10 uM": 8.75},
      {"compound": "COc1ccc(-c2cn3nc(N4CCC(C(=O)NCCCN5CCN(C)CC5)CC4)sc3n2)cc1", "% Inhibition @ 10 uM": 0.434},
      {"compound": "Cc1ccc(-c2nnc(N)s2)cc1", "% Inhibition @ 10 uM": 2.54},
      {"compound": "Cn1nccc1C(=O)N1CCc2ccccc21", "% Inhibition @ 10 uM": 1.67},
      {"compound": "CC1(C)CC(NC(=O)c2cc(Cl)ccc2Cl)CC(C)(C)N1", "% Inhibition @ 10 uM": -2.67},
      {"compound": "COc1ccc(Br)cc1C1C2=C(CC(C)(C)CC2=O)OC2=C1C(=O)CC(C)(C)C2", "% Inhibition @ 10 uM": -1.96},
      {"compound": "Oc1c(C(c2ccncc2)N2CCOCC2)cc(Cl)c2cccnc12", "note": "(centres unmarked)", "% Inhibition @ 10 uM": 1.91},
      {"compound": "CCOc1ccc(S(=O)(=O)NCCc2ccccc2)c2ccccc12", "% Inhibition @ 10 uM": -6.87},
      {"compound": "CCc1nnc(NC(=O)c2nc(-c3ccc(Cl)cc3)n3c2CCCCC3)s1", "% Inhibition @ 10 uM": 7.82},
      {"compound": "Cc1cccc(/N=C/c2nc(-c3ccc(Cl)cc3)oc2O)n1", "% Inhibition @ 10 uM": 2.92},
      {"compound": "Cc1ccccc1C(=O)NCCCNC(=O)c1ccccc1C", "% Inhibition @ 10 uM": 2.08},
      {"compound": "O=C(O)c1ccc(Cl)c(N2C(=O)C3C4C=CC(C4)C3C2=O)c1", "note": "(centres unmarked)", "% Inhibition @ 10 uM": 5.39}
    ]}
  ]
}
